Tests used:
recombinant human LTbR = recombinant human LTbR (human, UniProt P36941 31-227, limits assumed); test: biolayer interferometry (Octet), human LTbR
recombinant human CD47 = recombinant human CD47 (human, UniProt Q08722 part only, limits assumed); test: biolayer interferometry (Octet), 'hCD47-his Acro'; concentration not given
human LTBR-His = biological target: T1, human LTBR-His (human, UniProt P36941 31-227, limits assumed); test: ELISA: hLTBR-Fc His Tag capture, 'hLIGHT Biotinylated' detection, streptavidin HRP
T1 construct: also called hLTBR-His

CD47-His = biological target: T2, CD47-His; test: ELISA: hCD47 His capture, IgG HRP detection
T2 construct: ELISA capture protein used with both murine and human chimeras
T2 sequence (Q61735 19-140): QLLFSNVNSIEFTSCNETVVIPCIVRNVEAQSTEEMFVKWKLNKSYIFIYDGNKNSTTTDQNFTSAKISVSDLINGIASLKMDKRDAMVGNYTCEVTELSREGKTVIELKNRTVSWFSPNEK

Chain of human LTBR-His (P36941 31-227 limits assumed): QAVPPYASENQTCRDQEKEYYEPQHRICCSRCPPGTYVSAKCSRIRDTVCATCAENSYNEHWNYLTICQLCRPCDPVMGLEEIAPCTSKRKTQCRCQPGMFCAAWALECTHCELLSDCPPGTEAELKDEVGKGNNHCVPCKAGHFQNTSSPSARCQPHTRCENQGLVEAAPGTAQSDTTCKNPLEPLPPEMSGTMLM
Chain of recombinant human LTbR (P36941 31-227 limits assumed): as above
Chain of recombinant human CD47 (Q08722 19-139 limits assumed): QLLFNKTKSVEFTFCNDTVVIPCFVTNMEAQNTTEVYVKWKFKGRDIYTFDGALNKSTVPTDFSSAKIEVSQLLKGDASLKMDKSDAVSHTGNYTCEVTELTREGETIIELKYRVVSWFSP

B1: human CD172a(SIRPα)-Fc-LIGHT chimeric protein (Fc fusion)
chain: [sequence of about 350 residues omitted]SKYGPPCPPCPAPEFLGGPSVFLFPPKPKDQLMISRTPEVTCVVVDVSQEDPEVQFNWYVDGVEVHNAKTKPREEQFNSTYRVVSVLTVLHQDWLSGKEYKCKVSSKGLPSSIEKTISNATGQPREPQVYTLPPSQEEMTKNQVSLTCLVKGFYPSDIAVEWESNGQPENNYKTTPPVLDSDGSFFLYSRLTVDKSRWQEGNVFSCSVLHEALHNHYTQKSLSLSLGKIEGRMDLQLHWRLGEMVTRLPDGPAGSWEQLIQERRSHEVNPAAHLTGANSSLTGSGGPLLWETQLGLAFLRGLSYHDGALVVTKAGYYYIYSKVQLGGVGCPLGLASTITHGLYKRTPRYPEELELLVSQQSPCGRATSSSRVWWDSSFLGGVVHLEAGEKVVVRVLDERLVRLRDGTRSYFGAFMV
notes: also called hCD172a(SIRPα)-Fc-LIGHT; Sirp1a-Fc-LIGHT
B1: binds (recombinant human LTbR); binds (recombinant human CD47); binds (human LTBR-His). The “EC50 (read off the curve)” value (CD47-His) was ~4 nM.
